Out of some 110,000 compounds screened, about 230 (0.21%) showed an effect of 50% or more. This is one part of the list.
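Further: 30 min substrate incubation versus DMSO and 10 µM JCP410 controls.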

The target in the experiment is DPAP1 (Plasmodium falciparum, UniProt Q8IIJ9). Nature of the experiment: primary screen, percent inhibition; read by cleavage of a fluorogenic dipeptide substrate; higher = more effect of the substance. Details: species or system P. falciparum D10 trophozoite lysates; single well.
DPAP1, sequence (Q8IIJ9 whole entry, looked up): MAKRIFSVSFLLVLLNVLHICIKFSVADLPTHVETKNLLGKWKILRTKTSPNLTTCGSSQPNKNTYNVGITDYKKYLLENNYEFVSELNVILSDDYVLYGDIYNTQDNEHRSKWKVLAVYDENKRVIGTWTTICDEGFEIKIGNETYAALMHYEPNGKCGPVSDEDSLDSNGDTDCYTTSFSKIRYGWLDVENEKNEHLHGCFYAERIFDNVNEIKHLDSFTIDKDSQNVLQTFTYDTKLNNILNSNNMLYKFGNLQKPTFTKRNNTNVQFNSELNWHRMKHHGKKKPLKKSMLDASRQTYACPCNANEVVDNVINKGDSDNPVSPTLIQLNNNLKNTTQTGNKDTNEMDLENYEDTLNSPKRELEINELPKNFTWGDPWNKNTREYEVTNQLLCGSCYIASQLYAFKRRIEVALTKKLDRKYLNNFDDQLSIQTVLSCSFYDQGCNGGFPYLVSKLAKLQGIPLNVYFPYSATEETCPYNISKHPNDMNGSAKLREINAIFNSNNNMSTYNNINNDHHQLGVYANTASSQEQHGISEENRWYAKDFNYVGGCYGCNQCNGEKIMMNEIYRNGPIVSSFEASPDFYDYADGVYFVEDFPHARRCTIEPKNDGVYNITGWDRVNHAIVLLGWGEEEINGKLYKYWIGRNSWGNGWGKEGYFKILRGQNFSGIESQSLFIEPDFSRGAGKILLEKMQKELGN
Regarding `CCOc1ccc(C2NCCc3cc(OCC)c(OCC)cc32)cc1` (stereo not drawn), the “% Inhibition @ 10 uM” value came to 3.29%.
With `O=C(CN1CCN(Cc2ccc(F)cc2Cl)C1=O)NCc1ccccc1Cl` the figure was -2.12%; with `COc1ccc(C2CC(=O)C3=C(C2)NC(=O)CC3c2ccccc2C(F)(F)F)cc1OC` (stereo not drawn), 1.39%.
For `N=C(N)SCc1csc2c1CCCC2`, the “% Inhibition @ 10 uM” value was found to be 2.3%.
With `OCCN1CCN(CCOc2ccccc2-c2ccccc2)CC1` the figure was -16.5%.
With `CSc1nc(-c2ccccc2)nn1S(=O)(=O)c1ccccc1` the figure was 0.511%; with `CCOC(=O)N1CCC(NC(=O)CS(=O)(=O)Cc2nc(-c3ccc(C)cc3)oc2C)CC1`, -1.89%; with `COc1ccc(CN(C)Cc2ccccc2)cc1`, 1.62%.
With `CCc1nnc(NC(=O)C(C(C)CC)N2C(=O)c3ccccc3C2=O)s1` (stereo not drawn) the figure was -4.74%; with `Cc1ccc2nc(Nc3nc(O)cc(-c4ccccc4)n3)nc(C)c2c1`, 2.94%; with `O=C(Nc1ccc(F)c(Cl)c1)c1ccccc1NC(=O)C1CCCCC1C(=O)O` (stereo not drawn), 3.91%.
On to `C=CCn1c(SCC(=O)NC(N)=O)nc2sc(-c3ccccc3)cc2c1=O`, for which the “% Inhibition @ 10 uM” value was -2.88%.
On to `CCC1CCc2nc3sc(C(=O)Nc4ccc(OC)cc4OC)c(N)c3cc2C1` (stereo not drawn), for which the “% Inhibition @ 10 uM” value is -7.14%.
With `Cc1cccc(-n2nc(C)c(/C=N/C(=O)NCCc3ccccc3)c2O)c1` the figure was 3.05%; with `CC1CC(OC(=O)c2ccccc2)(c2ccccc2)C(C)CN1C` (stereo not drawn), 3.34%; with `CC1(C)CC2CC(C)(CN2C(=O)/C(=C/c2ccco2)NC(=O)c2ccccc2)C1` (stereo not drawn), -0.996%.
With `CC1CC(C)CN(C(=O)Cn2nc(Cc3ccncc3)c3ccccc3c2=O)C1` (stereo not drawn) the figure was 2.04%; with `CCN1C(=O)S/C(=C/c2cn(CC(=O)O)c3ccccc23)C1=O`, 8.69%; with `O=C(N[C@H](/C=C/S(=O)(=O)c1ccccc1)CCc1ccccc1)[C@H](Cc1ccccc1)NC(=O)N1CCNCC1`, 2.22%.
With `CCc1c(C)sc(NC(=O)C2CCCCC2)c1C(N)=O` the figure was 0.331%.
For `CCN(CC)S(=O)(=O)c1ccc(NC(=O)C(c2ccccc2)c2ccccc2)cc1`, the “% Inhibition @ 10 uM” value was -1.17%.
With `Cc1nn(CC(=O)NC2CCCC(C)C2C)c2ccccc12` (stereo not drawn), the “% Inhibition @ 10 uM” value is -6.6%.
With `O=C(c1ccccc1)N1N=C(c2ccco2)CC1c1cccs1` (stereo not drawn) the figure was -6.17%.
Take `COc1ccc(C(=O)N2CCN(Cc3cccc(OC)c3OC)CC2)cc1`: the “% Inhibition @ 10 uM” value is listed as -20.7%.
With `COCCN1C(=O)c2ccccc2C(C(=O)NC2CCCCC2)C1c1ccc(F)cc1` (stereo not drawn) the figure was 1.26%; with `O=S(=O)(NCCc1ccccc1)c1cccc2nsnc12`, 4.88%.
With `Cc1ccc(Cn2cc(CO)c3ccccc32)cc1` the figure was -4.75%; with `CS(=O)(=O)N(CC(=O)N1CCN(Cc2ccccc2)CC1)c1cccc(F)c1`, -3.19%.
For `CC(C)c1nnc2sc(NC(=O)c3ccccc3)nn12`, the “% Inhibition @ 10 uM” value is reported as 4.86%.
With `Cc1ccc2nc(NC(=O)COC(=O)c3ccc(Br)o3)sc2c1` the figure was 27.4%.
With `CC[C@H](NC(=O)[C@H](CC1CCCCC1)OC(=O)N1CCOCC1)C(=O)c1nnc(-c2ccccc2)o1` the figure was -3.48%.
For `COc1ccc(C2=NOC(C(=O)N3CCC(C)CC3)C2)cc1` (stereo not drawn), the “% Inhibition @ 10 uM” value came out at 1.42%.
With `COc1ccccc1NC(=O)c1cnn2c1NC(c1ccc(Br)cc1)CC2C(F)(F)F` (stereo not drawn) the figure was -5.69%; with `CC(C)c1ccc(CC(NC(=O)c2ccccc2)C(=O)NCC(=O)O)cc1` (stereo not drawn), 1.84%; with `Cc1ccc(C(=O)N/C(=C\c2ccc3c(c2)OCO3)C(=O)NC(CC(C)C)C(=O)O)cc1` (stereo not drawn), 1.91%.
For `Cc1ccc2c(c1)c(=O)c1c3n2CCNC3CC1` (stereo not drawn), the “% Inhibition @ 10 uM” value is reported as -4.02%.
`COc1ccc(N2C(=O)C3C4CCC(C4)C3C2=O)cc1` (stereo not drawn): the “% Inhibition @ 10 uM” value is recorded as 2.45%.
With `Cn1cc(NC(=O)Nc2ccccn2)c2ccccc2c1=O` the figure was -2.95%; with `CC(C)c1ccc(C2N3CC4(C)CN2CC(C)(C3)C4)cc1` (stereo not drawn), 1.62%; with `O=C(OCCN1CCCCC1)C(O)(c1ccccc1)c1ccccc1`, 8.68%.
Take `CCOc1ccc(C2=Nn3c(nnc3-c3ccc(OC)cc3)SC2)cc1`: the “% Inhibition @ 10 uM” value was 5.12%.
Regarding `COc1ccc(S(=O)(=O)NCCc2cc3ccc(C)cc3nc2O)cc1`, the “% Inhibition @ 10 uM” value was -0.396%.
With `CCOC(=O)C1CCCCN1Cc1ccc(F)cc1` (stereo not drawn) the figure was 3.1%; with `COc1ccc(Cl)cc1-c1nc(-c2ccc(NC(=O)c3ccccn3)cc2)no1`, 0.993%; with `COc1ccc(Cn2c(C(=O)O)c(CNCc3ccccc3C)c3ccc(OC)cc32)cc1`, 4.41%.
Turning to `CC1CCC(NC(=O)c2csc3c2CCC(C)C3)CC1` (stereo not drawn), the “% Inhibition @ 10 uM” value is -5.05%.
For the compound `CC(NC(=O)c1ccccc1)c1nc2ccccc2[nH]1` (stereo not drawn), the “% Inhibition @ 10 uM” value came to 3.49%.
With `Cc1cccn2cc(CCN3C(=O)c4ccccc4C3=O)nc12` the figure was 0.161%; with `Cc1ccc(-n2nc(C)c(/C=N/c3ccc4[nH]c(O)nc4c3)c2O)cc1C`, -0.736%; with `Cc1ccsc1-c1ncnn1-c1cccc(Cl)c1C`, -0.0953%.
Consider `CN(CC(=O)N1CCCCCC1)S(=O)(=O)c1cccc2cccnc12`, for which the “% Inhibition @ 10 uM” value is -2.42%.

Source of the values: publication PMC6919601, “Identification of Plasmodium dipeptidyl aminopeptidase allosteric inhibitors by high throughput screening” (PLoS ONE, 2019).
